# From the supplement of paper PMC7826260
# This is one part of the list. Viral Rep nickase domains cut single-stranded DNA in vitro (1 h at 37 °C, 3 µM enzyme); the outer parts of the 90-letter strands are left off. Numbers give uncut DNA relative to the enzyme-free pool, as log2; the lower, the more was cut; hits are not called. Reads are scaled to the total, so uncut sequences can rise above 0 when many others are cut.
# Tests used:
# Test in all cases: uncleaved DNA left, log2 of reads against the no-enzyme library (log2 ratio); higher = less cleavage (more negative = more Rep cleavage of the k-mer); sequences stand for … in CTCGTCCG…ACCGGAGA
# [1] = tested on: T1, Rep nickase domain of Muscovy duck circovirus
# T1 sequence (residues 1-111 of Rep, tag left off): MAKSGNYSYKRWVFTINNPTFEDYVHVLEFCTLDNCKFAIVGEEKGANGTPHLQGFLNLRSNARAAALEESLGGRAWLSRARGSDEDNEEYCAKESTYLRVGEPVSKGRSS
# Description: (§1)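 A pool of 90-nt single-stranded DNAs with seven random bases just before the constant AC of the nick site (name = the seven bases) was cut by 3 µM recombinant His6-SUMO-tagged Rep nickase domain (300 nM DNA, 50 mM HEPES pH 8.0, 50 mM NaCl, 1 mM MnCl2, 1 h, 37 °C, three replicates). Uncut DNA was amplified and sequenced.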
# [2] = tested on: T2, Rep nickase domain of banana bunchy top virus
# T2 sequence (residues 1-94 of Rep, tag left off): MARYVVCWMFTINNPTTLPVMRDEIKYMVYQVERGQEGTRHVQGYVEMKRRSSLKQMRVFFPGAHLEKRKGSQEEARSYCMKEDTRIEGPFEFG
# Description: as §1
# [3] = tested on: T3, Rep nickase domain of cabbage leaf curl virus
# T3 sequence (residues 1-116 of Rep, tag left off): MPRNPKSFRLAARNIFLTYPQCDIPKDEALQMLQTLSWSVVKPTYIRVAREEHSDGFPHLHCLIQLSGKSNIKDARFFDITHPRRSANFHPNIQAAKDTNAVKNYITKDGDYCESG
# Description: as §1
# [4] = tested on: T4, Rep nickase domain of chickpea chlorotic dwarf virus
# T4 sequence (residues 1-124 of Rep, tag left off): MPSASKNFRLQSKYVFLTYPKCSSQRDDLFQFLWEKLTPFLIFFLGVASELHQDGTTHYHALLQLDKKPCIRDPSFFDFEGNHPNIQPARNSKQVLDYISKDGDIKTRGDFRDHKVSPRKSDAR
# Description: as §1
# [5] = tested on: T5, Rep nickase domain of faba bean necrotic yellows virus
# T5 sequence (residues 1-98 of Rep, tag left off): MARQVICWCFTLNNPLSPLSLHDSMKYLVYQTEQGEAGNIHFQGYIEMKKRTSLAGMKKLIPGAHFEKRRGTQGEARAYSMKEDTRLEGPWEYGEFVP
# Description: as §1
# [6] = tested on: T6, Rep nickase domain of maize striate mosaic virus
# T6 sequence (residues 1-117 of Rep, tag left off): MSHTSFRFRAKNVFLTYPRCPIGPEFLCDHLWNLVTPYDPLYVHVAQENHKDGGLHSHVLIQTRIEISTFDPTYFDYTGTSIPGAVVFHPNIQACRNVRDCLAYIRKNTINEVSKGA
# Description: as §1
# [7] = tested on: T7, Rep nickase domain of porcine circovirus 2
# T7 sequence (residues 2-116 of Rep, tag left off): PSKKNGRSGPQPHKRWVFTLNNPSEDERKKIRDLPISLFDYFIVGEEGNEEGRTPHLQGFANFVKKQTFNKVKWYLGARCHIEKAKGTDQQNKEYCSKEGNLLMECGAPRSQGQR
# Description: as §1
# [8] = tested on: T8, Rep nickase domain of tomato golden mosaic virus
# T8 sequence (residues 1-124 of Rep, tag left off): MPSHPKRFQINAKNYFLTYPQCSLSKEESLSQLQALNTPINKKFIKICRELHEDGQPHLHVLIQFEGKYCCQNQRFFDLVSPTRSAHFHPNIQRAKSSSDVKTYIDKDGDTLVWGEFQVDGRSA
# Description: as §1
# [9] = tested on: T9, Rep nickase domain of tomato yellow leaf curl virus
# T9 sequence (residues 1-136 of Rep, tag left off): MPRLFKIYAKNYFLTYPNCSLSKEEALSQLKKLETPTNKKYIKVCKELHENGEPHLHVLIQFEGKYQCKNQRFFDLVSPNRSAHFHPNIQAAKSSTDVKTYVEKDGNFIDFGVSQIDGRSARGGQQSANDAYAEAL
# Description: as §1
# [10] = tested on: T10, Rep nickase domain of wheat dwarf virus
# T10 sequence (residues 1-137 of Rep, tag left off): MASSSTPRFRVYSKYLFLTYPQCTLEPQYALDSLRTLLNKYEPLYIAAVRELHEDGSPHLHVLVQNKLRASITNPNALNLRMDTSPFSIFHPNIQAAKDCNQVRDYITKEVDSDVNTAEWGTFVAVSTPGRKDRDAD
# Description: as §1
Sequence,uncleaved DNA left (log2) [1],uncleaved DNA left (log2) [2],uncleaved DNA left (log2) [3],uncleaved DNA left (log2) [4],uncleaved DNA left (log2) [5],uncleaved DNA left (log2) [6],uncleaved DNA left (log2) [7],uncleaved DNA left (log2) [8],uncleaved DNA left (log2) [9],uncleaved DNA left (log2) [10]
GGACTTC,0.0729,0.137,0.931,1.89,0.141,2.28,0.351,0.0718,0.171,0.362
CCGAGCA,0.00334,-0.0532,0.0951,0.268,-0.031,-0.143,-2.13,-0.0116,0.0671,0.0243
ACCATTG,0.0125,0.0234,-0.512,0.191,0.0578,-0.542,0.152,-0.0205,0.0784,-0.00798
GGCCGAT,0.2,0.161,0.761,1.65,0.0916,1.95,0.265,0.231,0.226,0.188
CCGACCT,-0.0475,0.0399,-0.0457,-0.399,-0.0328,0.0276,-0.104,-0.0982,-0.0401,-0.0716
TTTGGTC,0.0737,-0.0448,0.0879,-0.127,0.0856,-0.452,0.0536,-0.023,0.0298,-0.0731
AGAGACA,-0.0273,0.0825,0.209,0.825,-0.0176,1.57,0.165,0.0766,0.00298,0.0501
CCCGCAG,-0.0635,-0.165,-0.814,-0.423,0.14,-0.85,0.0532,-0.0728,-0.076,-0.083
TATTCAA,-1.52,-0.235,0.191,-0.361,-0.0495,-0.286,-0.435,-0.0371,0.0248,0.0592
GACATAA,0.0371,0.196,0.495,1.21,0.0317,1.42,0.188,0.0548,0.125,0.196
AGCAGCG,0.0906,0.118,-0.874,-0.0684,0.14,-0.912,0.189,0.0202,0.033,0.0584
TCCACAC,-0.048,-0.0925,0.0215,-0.452,-0.101,-0.499,-0.0523,-0.0561,-0.0582,-0.0665
ATTAGCC,0.0418,0.0287,-0.426,-0.318,0.045,-1.02,0.146,0.0362,0.0723,-0.00604
CGCGTCG,-0.0385,-0.0237,-0.604,-0.231,-0.0349,-0.676,0.0817,0.0217,-0.0182,-0.0749
GCATTTC,0.081,-0.0454,0.0629,0.313,0.106,-0.402,0.153,0.149,0.0684,0.124
AAGGTTT,-0.106,0.0106,0.126,0.722,-0.0361,1.46,-0.894,0.037,-0.132,-0.0599
CAAACTT,-0.179,-0.767,-3.31,-3.37,0.0453,-1.8,-2.99,-2.54,-0.0158,-2.89
CCCATTT,-0.101,-0.0474,-0.304,-2.59,-0.134,-0.829,-0.159,-0.0992,0.0042,-0.0761
CGAAGAT,-0.0086,0.0341,0.162,0.738,-0.00215,1.06,0.0997,0.0336,-0.14,-0.0421
AGGTCAA,0.056,0.143,0.405,0.691,0.0549,0.697,0.124,0.0443,0.0609,0.119
ACCGTCC,-0.0746,-0.123,-0.237,-0.341,-0.0301,-0.649,-0.0263,-0.0826,-0.226,-0.202
TGCGACT,-0.0897,0.04,-0.101,0.543,-0.0918,1.62,0.0512,0.000399,-0.0747,0.0591
CTGTCAT,-0.226,-0.239,-0.136,-0.425,-0.0971,-0.386,-1.13,-0.332,-0.16,-0.192
GGCGAGC,0.00431,-0.116,0.352,0.979,-0.0305,1.09,0.0551,0.136,0.0358,0.0901
TCTCCTG,-0.0969,-0.0794,-0.156,-0.209,-0.0839,-0.185,0.0203,0.0371,0.0354,-0.0771
ATCGCCG,0.014,-0.0675,-0.806,-0.131,0.0121,-0.915,0.0818,0.0169,-0.0478,-0.158
ATCCTGT,-0.0462,-0.128,-0.24,-0.39,-0.178,-0.476,-0.0868,-0.087,-0.185,-0.0157
CAGCACG,-0.0445,0.109,-0.773,-0.388,0.0787,-1.04,0.181,-0.0345,0.131,0.0102
TACGTGC,0.0155,0.0247,-0.361,-0.778,0.0584,-1.03,0.125,-0.0456,0.0844,-0.0335
CTTTTTC,-0.00816,0.0174,0.00291,-0.253,-0.029,-0.848,0.0332,-0.0507,0.019,-0.00555
